Experimental data taken from the RNAGym collection of RNA variant scans (doi:10.1073/pnas.2313332121).
Variants at the background level are over-represented here.

B1: TPR 5TU (parent)
chain: GGAUCUUCUCGAUCUAACAAAAAAGACAAAUCUGCCACAAAGCUUGAGAGCAUCUUCGGAUGCAGAGGCGGCAGCCUUCGGUGGCGCGAUAGCGCCAACGUUCUCAACUAUGACACGCAAAACGCGUGCUCCGUUGAAUGGAGUUUAUCAUG

Variants of: B1
Test: polymerase ribozyme fitness, log enrichment relative to wild type (log ratio); higher = more active; in vitro selection for triplet polymerase activity
How it was run: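 For each subunit of a heterodimeric triplet polymerase ribozyme, a mutant library was built by PCR and transcribed, then taken through a single in vitro selection round in triplicate. Selection involved annealing to a biotinylated primer, the partner subunit and triplets, incubation frozen at −7 °C, gel excision of extended constructs, capture on streptavidin beads and RT-PCR. Genotypes were retained after Illumina sequencing of inputs and outputs only with ≥10 input reads and ≥1 read in each output. Fitness is defined as the logarithm of a genotype's enrichment relative to wild-type enrichment, using inverse-variance-weighted averages across replicates, with the logarithm taken to base 2.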

Point of comparison: G62U C95A, “polymerase ribozyme fitness (log ratio)” value -1.1. Against it:
- G65U U82A C93U C95G — lower, ≤ -4.2
- G68A A73G C85U C87U A91U U134A G143A U148A — lower, ≤ -4.2
- G65A G70A U78C C93U G117U U146C — lower, ≤ -4.2
- A64G C69A G83A G94A — lower, ≤ -4.2
- A66U C85U C93U A115U A150C — lower, ≤ -4.2
- G67C C69A G71U G86U U102A A121C — lower, ≤ -4.2
- G65C C87G C103G C129U U135G — lower, ≤ -4.2
- C63U G81C U82C U102G U104A C108A A150C — lower, ≤ -4.2
- A64U C87U G100C U135G A150G — lower, ≤ -4.2
- G67C C96U A107U C118U — lower, ≤ -4.2
- G67C C93G — lower, ≤ -4.2
- G67C C93A — lower, ≤ -4.2
- A66G C72G C85G G88U U127C G140U G141C — lower, ≤ -4.2
- G67A G92A A106G — lower, ≤ -4.2
- A66C A91C — lower, ≤ -4.2
- A66C G136A — lower, ≤ -4.2
- A66G U78G U90C U135G — lower, ≤ -4.2
- A66C C72U G84U — lower, ≤ -4.2
- G65A G67C G92A — lower, ≤ -4.2
- C63G G67C U135G — lower, ≤ -4.2
- C63U U104G — higher, 0.272
- A64U G83A G86U C87A A97G — lower, ≤ -4.2
- G65A C114A — lower, -3.39
- G62U A73U G84U A91U U135A G141C — lower, ≤ -4.2
- G68A C85A — lower, ≤ -4.2
- G62U G94A — within 0.2 log units, -1.25
- G62U U109C C116U C131U A147U — lower, -1.94
- G67U U82A G83U C114G G126A G143A — lower, ≤ -4.2
- G65C C87A G92U C95A C118G G143U — lower, ≤ -4.2
- A64U C76G C93U — lower, ≤ -4.2
- A66C U148G — lower, ≤ -4.2
- G62C U77G C93A U111A U134A U139A — lower, ≤ -4.2
- A66C G83U — lower, ≤ -4.2
- G65A G68U C93U — lower, ≤ -4.2
- G65C G68U A97G A98U — lower, ≤ -4.2
- G67A C87U — lower, -4.13
- A66U G83U U127G — lower, ≤ -4.2
- G67C A91C U148G — lower, ≤ -4.2
- G67C A106U — lower, ≤ -4.2
- G62U A66G C93A A121U U148A — lower, ≤ -4.2
- C63U A64G G70C G84A — lower, ≤ -4.2
- C63G G86C G94A A98G C99A — lower, ≤ -4.2
- C63U C99G U151A — lower, ≤ -4.2
- C63U C87G U146G C149A — lower, ≤ -4.2
- G68A A97U C118U — lower, ≤ -4.2
- G67A C103A A107G G117U — lower, ≤ -4.2
- G68A C87G G128U — lower, ≤ -4.2
- A66C G92U — lower, ≤ -4.2
- A66C G92A — lower, ≤ -4.2
- A66G G71U — lower, ≤ -4.2
- A66G U77A G83U U104A G117U — lower, ≤ -4.2
- G65A G70A C85A A98U A137U U139G U145G — lower, ≤ -4.2
- A64C G80U A89C C95A C149G — lower, ≤ -4.2
- G62U G128A — lower, ≤ -4.2
- A66G U102A U135C — lower, ≤ -4.2
- G65C U77G C85U C116U — lower, ≤ -4.2
- G68A C75A A113C — lower, ≤ -4.2
- G68A U77C C87G U90G A115U — lower, ≤ -4.2
- G67C G92U C99U A107U U148A — lower, ≤ -4.2
- A66C G84A G141C C149A — lower, ≤ -4.2
- A64U C85U U90A U130G — lower, ≤ -4.2
- A66U G80C G84A — lower, ≤ -4.2
- A64G C69U G92A A110C — lower, ≤ -4.2
- C63A C85G C95U C118U — lower, -2.65
- G67A C75U C93A U146G — lower, ≤ -4.2
- A64G C108G — lower, ≤ -4.2
- A64U G94C A106G A107G C118U — lower, ≤ -4.2
- A64C C87G C99A G141U — lower, ≤ -4.2
- A66G C76A C129U A138C — lower, ≤ -4.2
- G65U C72A C85A U135G — lower, ≤ -4.2
- G67A C87U A122C — lower, ≤ -4.2
- G65C C87U G124U G136A U148G — lower, ≤ -4.2
- G65U G92C C116G — lower, ≤ -4.2
- G68A A119G G152U — lower, ≤ -4.2
- G65C G86C — lower, ≤ -4.2
- G65C G68U A137C A150C — lower, ≤ -4.2
- G65A C85U A137U U139A G140A G152A — lower, -3.3
- C63U G68A G92A A107U A142G — lower, ≤ -4.2
- A66C C76U U82G G92C — lower, ≤ -4.2
- G67U C85A C93U — lower, ≤ -4.2
- A64G A91U C103U A119U G126C — lower, ≤ -4.2
- C63A G80A C85G C96G A110G — lower, ≤ -4.2
- A66U C76G C85A C95U U102G A113U C116A A142C — lower, ≤ -4.2
- C63G G81U G92A G117C C118U G143U — lower, ≤ -4.2
- A66C U82C G124U — lower, ≤ -4.2
- A66G C105U A142C — lower, ≤ -4.2
- A66G A91G A110C — lower, ≤ -4.2
- A66C G74A — lower, ≤ -4.2
- G62C G81A A91U A113U C125U — lower, ≤ -4.2
- G65C C76A C79G G128U — lower, ≤ -4.2
- G68A G88C A110C U135C — lower, ≤ -4.2
- G68A G83A C116U — lower, ≤ -4.2
- G65U G88U — lower, ≤ -4.2
- C63U G68A — lower, ≤ -4.2
- G65A A89U G94U — lower, -2.57
- G67U G94C A119C U134G A147C — lower, ≤ -4.2
- C63G A107G U134G U144C — lower, ≤ -4.2
- C63U C79G A91G A107G — lower, ≤ -4.2
- A66C G92C C118A — lower, ≤ -4.2
- G68A C85A C116U C131U U146A C149G — lower, ≤ -4.2
- G68A C75U C85G G136U U148A — lower, ≤ -4.2
- G68A G83A C99A — lower, ≤ -4.2
- C63U G74A U78G C105G — lower, ≤ -4.2
- G68A C85A A98G C105G — lower, ≤ -4.2
- G67A G74C G94A A119G — lower, ≤ -4.2
- G62C G81C C99G A106C — lower, ≤ -4.2
- G62U G86C C95G C132U — lower, ≤ -4.2
- C63G C72U G88U G143C — lower, ≤ -4.2
- G62C G88A C95G G117U A122G A137C — lower, ≤ -4.2
- G65U C76U G84U G92A G133U — lower, ≤ -4.2
- A66C C87U C123U G141U — lower, ≤ -4.2
- A64U G80A U135C — lower, ≤ -4.2
- A66G C85A G126C — lower, ≤ -4.2
- A66G — lower, -2.32
- A66U — lower, -3.46
- A66C — lower, -4.16
- A66G G83C A110C — lower, ≤ -4.2
- A64C G140A — lower, ≤ -4.2
- G62C G80U C93A A122G — lower, ≤ -4.2
- G65A A66G A137C G141C — lower, ≤ -4.2
- A64G C85U C131U U144C G152U — lower, ≤ -4.2
- A66G A113U U146G — lower, ≤ -4.2
- A64C C72U U101A C105A A110U G128U G133A — lower, ≤ -4.2
- A64C G67C C108G U109G — lower, ≤ -4.2
- A66C A107C — lower, ≤ -4.2
- A64G U82G A91U C95U A110U U111G — lower, ≤ -4.2
- G67C U77G C85A C116U — lower, ≤ -4.2
- A66U C87U U90G — lower, ≤ -4.2
- G65C U101G U109A — lower, ≤ -4.2
- G67U C72U G92A C99U — lower, ≤ -4.2
- A66U G68A A73G A97G A121C G140C — lower, ≤ -4.2
- A66G C69G A73U C76G U77C U135G A138G — lower, ≤ -4.2
- A66C C85A — lower, ≤ -4.2
- G65C C85U G126U — lower, ≤ -4.2
- C63U C69U G80A C108G A142C — lower, ≤ -4.2
- G65A C76A C79A U109C G140U A150U — lower, ≤ -4.2
- A66G C87A A120G U127A G136A — lower, ≤ -4.2
- A66G G83U — lower, -3.62
- G67C G88C — lower, ≤ -4.2
- A66G G80C G92C — lower, ≤ -4.2
- A66G G81U G84C C118G — lower, ≤ -4.2
- G68A U101A U139A U144A — lower, ≤ -4.2
- G68A C93A A142U — lower, ≤ -4.2
- G68A A91G — lower, ≤ -4.2
- A64U C79U C103A — lower, ≤ -4.2
- G67A C116U A138U — lower, ≤ -4.2
- A66C A137U A138U U146G — lower, ≤ -4.2
- G68A C105G G140U U145C — lower, ≤ -4.2
- G65C A119U G124A A137C U151C — lower, ≤ -4.2
- A66C C93A G126U G136C — lower, ≤ -4.2
- C63U G70C G92A U101C U134G — lower, ≤ -4.2
- A66G A73G C93U A120G — lower, ≤ -4.2
- G65U U135C A150G — lower, ≤ -4.2
- A66G C85A A91G U148A — lower, ≤ -4.2
- A66U C72G C125A G126C — lower, ≤ -4.2
- G62U C85U U148A — lower, ≤ -4.2
- G68A G83U C118G G136U — lower, ≤ -4.2
- C63G C95A A110G A122U — lower, -3.22
- C63U G70C C95U A97U C116U — lower, ≤ -4.2
- G67U G94A A121U U148A G152U — lower, ≤ -4.2
- G67C C85G C99G G117A G133C U139C U144C U148C — lower, ≤ -4.2
- A64G G84U U151A — lower, ≤ -4.2
- C63A C79U G94C A119G — lower, ≤ -4.2
- C63U U102A U104G G124A — lower, -2.05
- A66C A73G C85G U90G C96U — lower, ≤ -4.2
- G68A C79U U139G U146C — lower, ≤ -4.2
